± gives the standard deviation. The list shows a part of the results, in another mix than the full data.
System: MIWI (PIWIL1) piRISC loaded with L1MC piRNA (30 nt)
Assay: pre-steady-state target cleavage rate (min^-1); MIWI and MILI are mouse PIWI proteins and EfPiwi is from a freshwater sponge; tags in brackets are library labels; higher = faster piRNA-guided slicing of the target
Conditions: guide: L1MC piRNA 5'p-UAACUAAAUACUAUGCAAGCUGUAGGUCCU
Method in brief: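 In Cleave-'n-Seq, a transcribed, DNA-blocked target RNA library (0.1 nM) was combined with 1 nM active affinity-purified piRISC bearing one synthetic guide, with or without 500 nM GTSF1 partner protein. Reactions ran in HEPES–potassium acetate buffer at 33 °C for 0–8 or 0–960 min. Uncleaved targets were sequenced and normalised to depth and to weakly complementary targets, three trials were pooled, and k3 was capped at 0.0001 min^-1. The pre-steady-state cleavage rate was obtained by fitting a burst-and-steady-state model.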

[1] = auxiliary factor: 500 nM mouse GTSF1
[2] = auxiliary factor: none (no GTSF1)

Row | Sequence | pre-steady-state target cleavage rate [1] | pre-steady-state target cleavage rate [2]
1 | UCCUGGAACAGCUUGCAUUGUAUUUACUUA | 0.367 ± 0.039 | 0.0192 ± 0.0055
2 | UCCUGCUACAGCUUGCAAAGUAUUUUGUUA | 0.791 ± 0.053 | 0.0173 ± 0.0033
3 | UCGACCUACAGGCUUGCAUAGUAUUUAGUUA | 1.07 ± 0.045 | 0.07 ± 0.011
4 | UCCUGGAUCAGCUUGCAUAGUAUUUGGUUA | 0.861 ± 0.06 | 0.037 ± 0.0087
5 | AGGACCUACAGCUUGCAUUGUAUUUUGUUA | 0.44 ± 0.025 | 0.0194 ± 0.004
6 | UCCACCUACAGCUUGCAUAGAAUUUAGAAA | 0.196 ± 0.035 | 0.00413 ± 0.0022
7 | UCCUGGAAGAGCUUGCAUACUAUUUAGUUA | 0.222 ± 0.02 | 0.0207 ± 0.006
8 | UCCUGGAUGUGCAUGCAUAGUAUUUAGUAA | 0.0251 ± 0.0072 | 0.00346 ± 0.0025
9 | UCCUGGUACCGCUUGCAUAGUAUUUAGUUA | 0.516 ± 0.078 | 0.0208 ± 0.005
10 | UGGACCUACAGCUUGCAUAGAAUUUAGUUA | 0.438 ± 0.034 | 0.0253 ± 0.0075
11 | UCCUGCUACAGCUAGGAUAGUAUUUAGUUA | 1.15 ± 0.12 | 0.006 ± 0.0018
12 | UCCUGGAUCUGCUUGCAUAGUAUAUAGUUA | 0.267 ± 0.03 | 0.0131 ± 0.0052
13 | UGGACGUACAGGUUGCAUAGUAUUUAGUUA | 0.981 ± 0.046 | 0.0521 ± 0.0089
14 | UGCACCUACAGCUUGCAUAGUAUUUAGAAA | 0.471 ± 0.051 | 0.0074 ± 0.0034
15 | UCCUGCUACAGCUUGCAUUGUAUAUAGUUA | 0.41 ± 0.034 | 0.0118 ± 0.0039
16 | UCCUGGAUGAGCUUUCAUAGUAUUUAGUUA | 0.312 ± 0.029 | 0.00672 ± 0.002
17 | UCCACCUUCAGCUUGCAUAGUAUUAAGUUA | 0.388 ± 0.037 | 0.0141 ± 0.0028
18 | UCCUGCUACAGCUUGCAUAGUAUUUAGUGA | 0.388 ± 0.045 | 0.0222 ± 0.0053
19 | AGGACCUACAGCUUGCAUAGUAUAAAGUAA | 0.443 ± 0.069 | 0.00659 ± 0.0031
20 | UGGACCUACAGCUUGCAUCGUAUUUAGUUA | 0.408 ± 0.019 | 0.0304 ± 0.0069
21 | AGGACCUACAGCUUGCAUAUUAUUUAGUUA | 1.23 ± 0.074 | 0.0773 ± 0.017
22 | UCGACCUACAGCUUGCAUAGUAUAUACUUA | 0.192 ± 0.029 | 0.00686 ± 0.0024
23 | UCCUGCUACAGCUUGCAUGGUAUUUAGUUA | 1.2 ± 0.1 | 0.0413 ± 0.0095

Row | Sequence | pre-steady-state target cleavage rate [1] | pre-steady-state target cleavage rate [2]
24 | UCCUGCUACAGCUUGCAUAGAAUUUAGUUA | 0.427 ± 0.037 | 0.0246 ± 0.0051
25 | UCCUCCUACAGCUUGCAUUGUAUAUAGUUA | 0.395 ± 0.023 | 0.01 ± 0.0029
26 | UCCUCCUACAGGUUGCAUAGUUUUUAGUUA | 0.227 ± 0.017 | 0.0159 ± 0.003
27 | AGGACCUACAGCUUGGAUAGUAUAUAGUUA | 0.736 ± 0.053 | 0.0336 ± 0.0076
28 | UGGACCUACAGGUUGCAUAGAAUUUAGUUA | 0.222 ± 0.018 | 0.0125 ± 0.004
29 | UCGACCUACAACUUGCAUAGUAUUUAGUUA | 1.33 ± 0.041 | 0.0746 ± 0.015
30 | UCCUGGAUGAGCUAGCAUAGUAUAUAGUUA | 0.194 ± 0.031 | 0.00454 ± 0.0041
31 | UCCUGGUUGUGCUUGCAUAGUAUUUACAAA | 0.0326 ± 0.011 | 0.00389 ± 0.0031
32 | UCGACCUACAGCUUGCAUAGUAUUUGAGUUA | 0.59 ± 0.045 | 0.0387 ± 0.0088
33 | UCCUGGUACAGCUUGCAUAGUAUUUAGGUUA | 0.2 ± 0.036 | 0.0317 ± 0.0097
34 | UCCUGGAUCAGCUUGGAUAGUAUUUAGUAA | 0.332 ± 0.045 | 0.0253 ± 0.0056
35 | AGGACCUACAGCUUGCAUAGUAAUUAGAUA | 0.417 ± 0.057 | 0.0101 ± 0.0036
36 | UCGACCUACCAGCUUGCAUAGUAUUUAGUUA | 1.29 ± 0.064 | 0.0725 ± 0.016
37 | UCCUGCUACUCGUUGCAUAGUAUUUAGUAA | 0.153 ± 0.016 | 0.00287 ± 0.0029
38 | UCGACCUUACAGCUUGCAUAGUAUUUAGUUA | 1.47 ± 0.057 | 0.091 ± 0.02
39 | UCCUGGAUCAGCUUGCUUAGAAUUUAGUUA | 0.0591 ± 0.0074 | 0.00983 ± 0.0038
40 | AGGACCUACUGCUUGCAUAGUAUUUUCAAA | 0.198 ± 0.031 | 0.00608 ± 0.0028
41 | AGGACCUACAGCUUGCAUAGUUUUUACAAA | 0.243 ± 0.042 | 0.00327 ± 0.003
42 | UCCUCCUACAGCUUGGAUACUAUUUAGUUA | 0.33 ± 0.025 | 0.0211 ± 0.0043
43 | UGGACCUACAGCUGGCAUAGUAUUUAGUUA | 1.04 ± 0.044 | 0.0463 ± 0.011
44 | UCCUCCUACAGCAUGCAAAGUAUUUAGUUA | 0.952 ± 0.048 | 0.0107 ± 0.0027
45 | UCCUGGAACAGCUUAGCAUAGUAUUUAGUUA | 0.986 ± 0.049 | 0.0182 ± 0.0038
46 | UCCUGGAUGUCCUUGCAUAGUACUUAGUUA | 0.0529 ± 0.0085 | 0.00795 ± 0.0021
